Laboratory results published in the supplement of paper PMC10185492.
The other results are listed elsewhere or left out. Values come from read counts of a selection and are noisy.

What follows are substances tested on SARS-CoV-2 3CLpro (nsp5) (assay: substrate phage enrichment score (protease-eluted vs HEPES control, +1 offset) (ratio); higher = better cleaved substrate). Details: selection round: 4; protease elution time: 15 min.
Description: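 Random heptapeptide substrate phage display (M13 pIII fusion, heptapeptide between an N-terminal biotinylated AviTag GLNDIFEAQKIEWHE and pIII; phages immobilised on streptavidin) eluted by cleavage with 50 nM protease in 20 mM HEPES at 37 °C. Selected phages were NGS sequenced, and the enrichment score is (reads in protease sample + 1)/(reads in HEPES blank-selection control + 1).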

Substance	substrate phage enrichment score
KTHNTTR	6.33
IQNRVVQ	0.533
CAPSLQG	> 27
SGGSAAA	0.368
FGVNPYY	0.25
LRGCSLR	13.5
EAHTGTP	1.56
IGLPRER	0.179
SSSTSTG	> 22
QGTHTFL	5.5
LTQVNQR	3
SLTIFQG	2.61
GAPAHHH	2.5
QAMGSKS	> 73
IHHHHGA	0.667
SLSGYYR	> 27
RNHSTKS	2.07
SRHTELQ	> 23
APLPVLQ	> 23
VSRVYEG	2.07
KSGTEYF	3
QPYHIDR	7.11
DVEVSSR	> 21
RCVQVQG	> 31
YGEGTLS	2.83

Substance	substrate phage enrichment score
RATTKLQ	> 208
GIRPPKM	> 23
VTNPRYG	> 35
KTDGAQR	1.67
IPAAHHH	1.18
LQAHLRC	1.56
SGDLKPA	1.43
RTSGSVK	> 77
NSYTELQ	> 59
PRDTRDS	> 27
KYTEPSN	> 49
PCCSRLQ	35.5
RYWAQLQ	> 21
YNSAAHH	0.294
AHNYSPR	6
TATAHPQ	> 41
TQCKYVG	1.46
RRCVARS	0.911
SAVAHHH	0.571
CAPVHDR	> 51
TGPSFLQ	> 53
SQGKSNL	1.09
GALSSPR	9
ATGTDMH	1
RADAASQ	0.769

Substance	substrate phage enrichment score
ELLPGSL	0.481
SVWNTQL	21.2
LSCMRVR	0.444
LQRAERR	> 23
YEAAHHH	0.6
AVSCQHD	1.5
GNQRVQR	0.929
PTHVGTM	> 25
NFQGGSA	1.18
NDNGKTW	5.86
SKNATCI	1.69
QHTATPE	> 22
NLNAHLQ	39
SENQSMR	14.2
SKAAHHH	0.71
DGSAAAH	0.714
MQSHNQL	> 70
SQFPSNR	> 29
EPSFQGG	> 72
GMRTQVQ	10
SQLYFQG	0.625
MTPGSQY	8.4
HMAAHHH	1
SQCAPLK	> 40
IKYPRLQ	23

Substance	substrate phage enrichment score
AASIILQ	21
KSHLQPH	0.833
VRGLTDC	> 27
GSSSELQ	10.7
TSQIQFQ	> 36
DQKQGAR	2.82
PTYDMNL	1.75
RAAWQSR	1.18
RSSVNPA	0.149
RERQFCD	1.61
TTGVSRQ	> 90
SPSGAKS	> 23
DRGCILN	> 43
CRDVTRM	0.25
NDVPVRN	> 21
RIGGQQA	7.67
LCSSAPD	2.71
SAVWSPG	1.37
MQNQHDL	10
SDGLPAE	> 70
WQHKSRQ	4.5
VNKAGIS	> 30
VRTEDAW	> 38
CDLNFQG	> 35
WHNGSSW	2.62
